To fix the notation:
B1: TPR 5TU (parent)
chain: GGAUCUUCUCGAUCUAACAAAAAAGACAAAUCUGCCACAAAGCUUGAGAGCAUCUUCGGAUGCAGAGGCGGCAGCCUUCGGUGGCGCGAUAGCGCCAACGUUCUCAACUAUGACACGCAAAACGCGUGCUCCGUUGAAUGGAGUUUAUCAUG

Variants at the floor of the assay are shown more often than the library holds them.

Variants of B1 are the subject of the data set. Description: polymerase ribozyme fitness, log enrichment relative to wild type (log ratio); higher = more active; in vitro selection for triplet polymerase activity. In short, it runs like this: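 Fitness measures genotype enrichment against wild-type enrichment on a logarithmic scale, with inverse-variance-weighted averaging of replicates. The logarithm is base 2, and genotypes were kept only with ≥10 input reads and ≥1 read per output in Illumina sequencing. The sequenced libraries came from one triplicate in vitro selection round, including frozen incubation at −7 °C, of PCR-built, transcribed mutant libraries of each subunit of a heterodimeric triplet polymerase ribozyme.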
On to A20C A49C C79A G80A G92U A138U, for which the “polymerase ribozyme fitness (log ratio)” value is not above -4.2. Then A20C C35U G100C A115U A137G U144A C149G, with not above -4.2; and A19U C35U G42U U55G G67A C85G A97C C114G G140U, with not above -4.2.

On to A19G C35A U44A A47C C69A, for which the “polymerase ribozyme fitness (log ratio)” value is not above -4.2. With A20U A22C U82G G86U U101G C103G G143U the figure was not above -4.2; with A20G A52U C85A A91G C99G G117U U148A, not above -4.2.

With A20U C54A A106C, the “polymerase ribozyme fitness (log ratio)” value is -3.99.

On to A20U G50A G86U C96G, for which the “polymerase ribozyme fitness (log ratio)” value was not above -4.2. With A19U A49C C69U U77G C79A G84A C99A A113C C114G A142C the figure was not above -4.2. On to A19G A49C C54A G68A C93A C95A C103U G124A, for which the “polymerase ribozyme fitness (log ratio)” value was not above -4.2. Then A20G A28C A41U C57G A91U, with not above -4.2; and A19U C85G, with -2.18. With A19G C87G G92A C149U the figure was not above -4.2; with A20U G42C C87U G100C C105U G140C, not above -4.2.

As to A19G C27G C85A C116U, the “polymerase ribozyme fitness (log ratio)” value is not above -4.2. With A19C U56A G92A G133U A147U the figure was not above -4.2; with A19G U90G, not above -4.2; with A19G G42U G50U A52U C75U G88U G92C G143A, not above -4.2.

In the case of A20U U55A G74A G84A G117U A120U, the “polymerase ribozyme fitness (log ratio)” value was not above -4.2. With A19U U61A G86U A107G A115U G152U the figure was not above -4.2; with A20C G25C G34U C54A A91G A119U A122U G124U C125G, not above -4.2. Regarding A20U A22U C93U G143U, the “polymerase ribozyme fitness (log ratio)” value was not above -4.2.

As to A19U G59C C85A C95A A115G U151A, the “polymerase ribozyme fitness (log ratio)” value was not above -4.2. With A19G U33C A49C C54U G81A C87U the figure was not above -4.2; with A20G G74A G84U G126C, not above -4.2; with A20U U56A G58C G88A G124C, not above -4.2. With A20U G25A C87G G100A U127G G141A the figure was not above -4.2. Then A19G G48A C54G G81U G94U, with not above -4.2; and A20C A49C C57A C75G C76U C93A, with not above -4.2; and A19G C57G G84U, with -2.3. Regarding A20U A23C C35U C75U C103G G136A, the “polymerase ribozyme fitness (log ratio)” value was not above -4.2. With A19U C69G C96G U104G the figure was -1.98; with A19U C57A C69A C93G C108G, not above -4.2. Then A19G C32G G59U A73U G86A C125A, with not above -4.2; and A20G G83C G112A U134C, with not above -4.2; and A19U A40C G88A A89C, with not above -4.2. Then A19U A37C U56C G84C G86A A91C C108A A120C, with not above -4.2. Consider A20C A24C G48A G141A, for which the “polymerase ribozyme fitness (log ratio)” value is not above -4.2. Then A20C A39G A40U C85A, with not above -4.2; and A19G G25C C38U G84U G128A, with not above -4.2. With A20C A40G A52G C85A A98G the figure was -4.01; with A20C G59C C79G C85U G117A C132G G143U U148G, not above -4.2. In the case of A20C C27A A89G C93G U102G C103G C108U A138U, the “polymerase ribozyme fitness (log ratio)” value is not above -4.2. Then A20G A30U C35U C51U, with not above -4.2.

Regarding A19C U45A G67A, the “polymerase ribozyme fitness (log ratio)” value was not above -4.2. For the variant A20C A30G C36U U56A G62U C93A C103A G133A U148A, the “polymerase ribozyme fitness (log ratio)” value was not above -4.2. Then A19U A66C C96U U145G, with not above -4.2. Take A20C C54G C76U G86C C87A A122C: the “polymerase ribozyme fitness (log ratio)” value is not above -4.2. With A20C C51U C54G C76U C93A the figure was not above -4.2; with A20G C75A G84A G100A, not above -4.2; with A20C C27U G81A G86A C99G, -2.96.

For A20G C27G G67C U78G A89U C93G G124A U151G, the “polymerase ribozyme fitness (log ratio)” value is not above -4.2.

On to A19U G48A G88U G92C C125U A138U G143C, for which the “polymerase ribozyme fitness (log ratio)” value was not above -4.2. Take A20U A26U U53A U78G U90G A91U C129U A150G: the “polymerase ribozyme fitness (log ratio)” value was not above -4.2.

As to A20C U56C U78G G81A C95A C103U G117A G140C A147C U148A, the “polymerase ribozyme fitness (log ratio)” value was not above -4.2.

In the case of A20U U53A A120G, the “polymerase ribozyme fitness (log ratio)” value is -2.23.

For the variant A19U A37U U44G A66U G92U C96A C123U G124A, the “polymerase ribozyme fitness (log ratio)” value is not above -4.2.

On to A19U A22U C32A, for which the “polymerase ribozyme fitness (log ratio)” value was not above -4.2. Then A20U C54G A91G A106G U144C, with not above -4.2; and A19U A47G U53G G67C C99U A142C A147C, with not above -4.2; and A19G C85G G117A A137G, with -2.73. Then A20C U33C C79G A107U C116U G124C, with not above -4.2; and A19U C96G A122U, with -0.445. With A20G G80C C103A G143A, the “polymerase ribozyme fitness (log ratio)” value is not above -4.2. As for A19U U56A A60G U104G G152A, the “polymerase ribozyme fitness (log ratio)” value is -2.82. With A20C U55A G67C G124A A137U the figure was not above -4.2; with A20C G34U C54U G84C U139A, not above -4.2; with A20C A66C C95U, not above -4.2. With A20U A23G G50U G86A A110C C129G G140A, the “polymerase ribozyme fitness (log ratio)” value is not above -4.2. Then A20C A39U C43U U61A A142C G143A C149U, with not above -4.2; and A20C C38A C51U G58C C76U A137C, with not above -4.2; and A20C A21C A26U A52G C75U C85A A98G U111A U151A, with not above -4.2. On to A20C U56G A60C U90A C95U, for which the “polymerase ribozyme fitness (log ratio)” value was not above -4.2. A19U A23C A40U U109G U144C: the “polymerase ribozyme fitness (log ratio)” value is not above -4.2.

Consider A20C U78A C103G C105G, for which the “polymerase ribozyme fitness (log ratio)” value was not above -4.2. Then A19U U55G C87A U102G U145G, with not above -4.2; and A19U A49G G83U A91U C116A G140C, with not above -4.2; and A20U G74A A137U, with not above -4.2.

As for A20C G65U U90G C93U C129A, the “polymerase ribozyme fitness (log ratio)” value was not above -4.2. For A19U U31A G58C C63U G70C C95U C131G G152U, the “polymerase ribozyme fitness (log ratio)” value was not above -4.2.

Consider A20C C57U G58C A60U U61G C79G C87G A91U G140U, for which the “polymerase ribozyme fitness (log ratio)” value was not above -4.2. On to A20C A23U A29U G92A A110U U139G A142G U144G, for which the “polymerase ribozyme fitness (log ratio)” value is not above -4.2.

For A19G U82G G94A C96U A97U G124U, the “polymerase ribozyme fitness (log ratio)” value was -2.53.

The values are drawn from the RNAGym collection of RNA variant scans (doi:10.1073/pnas.2313332121).
